# This is one part of the list.
# B1: HPA (Helix pomatia), Q2F1K8 (protein)
# chain: MQAFYSGLLLLCVVAFAAAQRVQSGKIDCGNDAGWAKVPSDDPGRDNTRELAKNITFASPYCRPPVVLLSITQLDVEQSQNLRVIARLYSVSPTGFKASCYTWHNTKVYSMSISWISIENY
# Assays:
# Experiment in all cases: glycan array binding signal (z-score within array); higher = stronger binding
# Settings in all cases: glycan notation: IUPAC condensed, linker removed
# Fuc(a1-2)Gal = molecular target: Fuc(a1-2)Gal
# How it was run: (§1)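 Arrays were curated from the Consortium for Functional Glycomics database, 3228 in total, and kept only where the protein sequence was available. Binding is expressed as a within-array Z-score. This score was averaged across arrays of the same protein sequence at different concentrations or buffers and across linkers, and negative values can be read as non-binding.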
# Fuc(a1-2)Gal(b1-3)GalNAc = molecular target: Fuc(a1-2)Gal(b1-3)GalNAc
# How it was run: as §1
# [1] = molecular target: Fuc(a1-2)Gal(b1-3)GalNAc(a1-3)[Fuc(a1-2)]Gal(b1-4)Glc
# How it was run: as §1
# [2] = molecular target: Fuc(a1-2)Gal(b1-3)GalNAc(a1-3)[Fuc(a1-2)]Gal(b1-4)GlcNAc
# How it was run: as §1
# [3] = molecular target: Fuc(a1-2)Gal(b1-3)GalNAc(b1-3)Gal
# How it was run: as §1
# [4] = molecular target: Fuc(a1-2)Gal(b1-3)GalNAc(b1-3)Gal(a1-4)Gal(b1-4)Glc
# How it was run: as §1
# [5] = molecular target: Fuc(a1-2)Gal(b1-3)GalNAc(b1-4)[Neu5Ac(a2-3)]Gal(b1-4)Glc
# How it was run: as §1
# Fuc(a1-2)Gal(b1-3)GlcNAc = molecular target: Fuc(a1-2)Gal(b1-3)GlcNAc
# How it was run: as §1
# [6] = molecular target: Fuc(a1-2)Gal(b1-3)GlcNAc(b1-2)Man(a1-3)[Fuc(a1-2)Gal(b1-3)GlcNAc(b1-2)Man(a1-6)]Man(b1-4)GlcNAc(b1-4)GlcNAc
# How it was run: as §1
# [7] = molecular target: Fuc(a1-2)Gal(b1-3)GlcNAc(b1-2)Man(a1-3)[Fuc(a1-2)Gal(b1-3)GlcNAc(b1-2)Man(a1-6)]Man(b1-4)GlcNAc(b1-4)[Fuc(a1-6)]GlcNAc
# How it was run: as §1
# [8] = molecular target: Fuc(a1-2)Gal(b1-3)GlcNAc(b1-3)Gal(b1-4)Glc
# How it was run: as §1
# [9] = molecular target: Fuc(a1-2)Gal(b1-3)GlcNAc(b1-3)GalNAc
# How it was run: as §1
# [10] = molecular target: Fuc(a1-2)Gal(b1-3)GlcNAc(b1-3)[Fuc(a1-2)Gal(b1-3)GlcNAc(b1-6)]GalNAc
# How it was run: as §1
# [11] = molecular target: Fuc(a1-2)Gal(b1-3)GlcNAc(b1-3)[Gal(b1-4)GlcNAc(b1-6)]Gal(b1-4)Glc
# How it was run: as §1
# [12] = molecular target: Fuc(a1-2)Gal(b1-3)GlcNAc(b1-3)[Gal(b1-4)[Fuc(a1-3)]GlcNAc(b1-6)]Gal(b1-4)Glc
# How it was run: as §1
# [13] = molecular target: Fuc(a1-2)Gal(b1-3)GlcNAc(b1-3)[Neu5Ac(a2-6)Gal(b1-4)GlcNAc(b1-6)]Gal(b1-4)Glc
# How it was run: as §1
# [14] = molecular target: Fuc(a1-2)Gal(b1-3)GlcNAc6S
# How it was run: as §1
# [15] = molecular target: Fuc(a1-2)Gal(b1-3)[Fuc(a1-4)]GlcNAc
# How it was run: as §1
# [16] = molecular target: Fuc(a1-2)Gal(b1-3)[Fuc(a1-4)]GlcNAc(b1-2)Man(a1-3)[Fuc(a1-2)Gal(b1-3)[Fuc(a1-4)]GlcNAc(b1-2)Man(a1-3)]Man(b1-4)GlcNAc(b1-4)GlcNAc
# How it was run: as §1
# [17] = molecular target: Fuc(a1-2)Gal(b1-3)[Fuc(a1-4)]GlcNAc(b1-2)Man(a1-3)[Fuc(a1-2)Gal(b1-3)[Fuc(a1-4)]GlcNAc(b1-2)Man(a1-6)]Man(b1-4)GlcNAc(b1-4)GlcNAc
# How it was run: as §1
# [18] = molecular target: Fuc(a1-2)Gal(b1-3)[Fuc(a1-4)]GlcNAc(b1-2)Man(a1-3)[Fuc(a1-2)Gal(b1-3)[Fuc(a1-4)]GlcNAc(b1-2)Man(a1-6)]Man(b1-4)GlcNAc(b1-4)[Fuc(a1-6)]GlcNAc(b1-4)[Fuc(a1-6)]GlcNAc
# How it was run: as §1
# [19] = molecular target: Fuc(a1-2)Gal(b1-3)[Fuc(a1-4)]GlcNAc(b1-3)[Fuc(a1-3)[Gal(b1-4)]GlcNAc(b1-6)]Gal(b1-4)Glc
# How it was run: as §1
# [20] = molecular target: Fuc(a1-2)Gal(b1-3)[Fuc(a1-4)]GlcNAc(b1-3)[Gal(b1-4)GlcNAc(b1-6)]Gal(b1-4)Glc
# How it was run: as §1
# [21] = molecular target: Fuc(a1-2)Gal(b1-4)Fuc(a1-3)]GlcNAc(b1-2)Man(a1-3)[Fuc(a1-2)Gal(b1-4)[Fuc(a1-3)]GlcNAc(b1-2)Man(a1-6)]Man(b1-4)GlcNAc(b1-4)GlcNAc
# How it was run: as §1
# Fuc(a1-2)Gal(b1-4)Glc = molecular target: Fuc(a1-2)Gal(b1-4)Glc
# How it was run: as §1
# Fuc(a1-2)Gal(b1-4)Glc6S = molecular target: Fuc(a1-2)Gal(b1-4)Glc6S
# How it was run: as §1
# Fuc(a1-2)Gal(b1-4)GlcNAc = molecular target: Fuc(a1-2)Gal(b1-4)GlcNAc
# How it was run: as §1
# [22] = molecular target: Fuc(a1-2)Gal(b1-4)GlcNAc(b1-2)Man
# How it was run: as §1
# [23] = molecular target: Fuc(a1-2)Gal(b1-4)GlcNAc(b1-2)Man(a1-3)[Fuc(a1-2)Gal(b1-4)GlcNAc(b1-2)Man(a1-6)]Man(b1-4)GlcNAc(b1-4)GlcNAc
# How it was run: as §1
# [24] = molecular target: Fuc(a1-2)Gal(b1-4)GlcNAc(b1-2)Man(a1-3)[Fuc(a1-2)Gal(b1-4)GlcNAc(b1-2)Man(a1-6)]Man(b1-4)GlcNAc(b1-4)[Fuc(a1-6)]GlcNAc
# How it was run: as §1
binder,measurement,setting,value
B1,glycan array binding signal (z-score),Fuc(a1-2)Gal,-0.198
same,glycan array binding signal (z-score),Fuc(a1-2)Gal(b1-3)GalNAc,-0.057
same,glycan array binding signal (z-score),[1],-0.006
same,glycan array binding signal (z-score),[2],0.012
same,glycan array binding signal (z-score),[3],-0.083
same,glycan array binding signal (z-score),[4],-0.204
same,glycan array binding signal (z-score),[5],-0.266
same,glycan array binding signal (z-score),Fuc(a1-2)Gal(b1-3)GlcNAc,0.334
same,glycan array binding signal (z-score),[6],0.956
same,glycan array binding signal (z-score),[7],-0.299
same,glycan array binding signal (z-score),[8],-0.317
same,glycan array binding signal (z-score),[9],-0.279
same,glycan array binding signal (z-score),[10],0.06
same,glycan array binding signal (z-score),[11],-0.27
same,glycan array binding signal (z-score),[12],-0.454
same,glycan array binding signal (z-score),[13],-0.283
same,glycan array binding signal (z-score),[14],-0.152
same,glycan array binding signal (z-score),[15],0.273
same,glycan array binding signal (z-score),[16],-0.094
same,glycan array binding signal (z-score),[17],4.62
same,glycan array binding signal (z-score),[18],-0.007
same,glycan array binding signal (z-score),[19],-0.267
same,glycan array binding signal (z-score),[20],-0.126
same,glycan array binding signal (z-score),[21],0.125
same,glycan array binding signal (z-score),Fuc(a1-2)Gal(b1-4)Glc,-0.402
same,glycan array binding signal (z-score),Fuc(a1-2)Gal(b1-4)Glc6S,0.024
same,glycan array binding signal (z-score),Fuc(a1-2)Gal(b1-4)GlcNAc,-0.28
same,glycan array binding signal (z-score),[22],-0.353
same,glycan array binding signal (z-score),[23],0.216
same,glycan array binding signal (z-score),[24],-0.322

# Reference: the supplement of paper PMC8728848
